1 molecule from patent US20240101670A1 (Eli Lilly, published 2024) can be followed below.

Assay [1] addresses T1, human LAIR1 on cells (human, UniProt Q6GTX8 22-287).
T1 sequence: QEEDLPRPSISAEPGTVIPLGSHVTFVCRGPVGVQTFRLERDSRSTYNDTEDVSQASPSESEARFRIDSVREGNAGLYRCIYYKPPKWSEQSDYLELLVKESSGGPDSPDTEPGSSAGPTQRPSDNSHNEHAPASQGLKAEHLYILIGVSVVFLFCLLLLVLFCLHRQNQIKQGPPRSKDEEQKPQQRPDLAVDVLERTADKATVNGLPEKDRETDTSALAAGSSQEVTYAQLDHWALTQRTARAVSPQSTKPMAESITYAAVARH
Description: cell-based or functional assay.

In assay [2] the target is cynomolgus monkey LAIR1 on cells (cynomolgus monkey). The experiment in a line: cell-based or functional assay.
Assay [3] has as its target T1, human LAIR1 on cells. Description: cell-based or functional assay. This is another data set of the same source.
Assay [4] has as its target T2, soluble, extracellular domain (ECD) of LAIR1 (human, UniProt Q6GTX8 22-163).
T2 construct: Produced recombinantly; also called LAIR1-ECD; LAIR1 ECD protein
T2 chain: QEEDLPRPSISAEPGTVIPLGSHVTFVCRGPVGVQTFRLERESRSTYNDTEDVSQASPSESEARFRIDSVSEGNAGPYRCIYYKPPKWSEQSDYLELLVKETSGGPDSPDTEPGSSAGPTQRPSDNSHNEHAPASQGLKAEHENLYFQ
Description: SPR, Biacore 8K, 37 °C, antibody captured on anti-human kappa, LAIR1-ECD as analyte. The procedure:
Antibody binding affinity and kinetics were determined by surface plasmon resonance (SPR) using a Biacore 8K (Cytivia Life Sciences). Measurements were performed at 37° C. using HBS-EP+ as the running buffer (150 mM sodium chloride, 3 mM EDTA, 0.05% (w/v) surfactant P-20, and 10 mM HEPES, pH7.4). Binding experiments used the soluble, extracellular domain (ECD) of LAIR1 (SEQ ID NO: 17), produced recombinantly, which was diluted to working concentration in HBS-EP+ containing 0.1 mg/mL Bovine serum albumin. Goat anti-Human kappa (Southern Biotech) was immobilized on all eight flow cells of a CM4 sensor chip using an amine coupling kit.
Binding was evaluated using multiple analytical cycles. Each cycle is performed at a flow rate of 30 μL/minute and consists of the following steps: injection of antibody over a different flow cell (25 μL of antibody at 0.5 μg/mL at 10 μL/minute), injection of 75 μL (30 μL/min, for 150 seconds) of each LAIR1-ECD dilution (starting at 1 μM and using three-fold serial dilutions to 1.4 nM for each cycle, with one injection for each concentration) followed by a 1200 second delay for dissociation, and chip surface regeneration using three 15 μL injections (30 μL/min, for 30 seconds) of 10 mM glycine hydrochloride, pH1.7. Association and dissociation rates for each cycle were determined by fitting of the biosensor data to a simple 1:1 association model using the provided instrument analysis software to extract the kₒₙ and koff rate constants; the equilibrium binding constant KD was calculated using the relationship Kd=koff/kₒₙ.
On the technique in general: Surface plasmon resonance follows binding to a sensor surface in real time, without labels.

The target in assay [5] is T3, cynomolgus monkey LAIR1 on cells (cynomolgus monkey).
T3 construct: whole, on cells; Jurkat LAIR1ko cells expressing cyno LAIR1; also called cyno LAIR1; cyLAIR1
The experiment in a line: flow cytometry, Jurkat-cyLAIR1+ cells. The procedure: (§1) The anti-human LAIR1 antibodies were evaluated for binding to human and cynomolgus monkey (cyno) LAIR1 engineered cell lines and primary human T cells that endogenously express LAIR1. Jurkat-hLAIR1+ (Jurkat cell overexpressing human LAIR1), Jurkat-LAIR1ko (Jurkat cell knocking out human LAIR1), Jurkat-cyLAIR1+ cells (Jurkat LAIR1ko cell expressing cyno LAIR1), and primary human T cells were incubated with the anti-human LAIR1 test antibodies. […] Cells were then washed and incubated with anti-human IgG Alexa Fluor 647 secondary antibody for 20 minutes at 4° C. Cells were then washed and antibody binding was evaluated by flow cytometry. For primary human T cells, cells were also stained for CD4 and CD8 to delineate CD4+ and CD8+ T cells.
A general note: A flow cytometer gives signals particle by particle.

Assay [6] concerns the target T1, human LAIR1 on cells. The experiment in a line: cell-based or functional assay. The source holds these as a separate data set.
Assay [7] deals with T1, human LAIR1 on cells. Description: flow cytometry, Jurkat-hLAIR1+ cells. The procedure:
as §1

Assay [8] has as its target T1, human LAIR1 on cells. Description: flow cytometry, primary human CD4+ T cells (endogenous LAIR1). The procedure:
as §1

Assay [9] deals with T1, human LAIR1 on cells. Description: flow cytometry, primary human CD8+ T cells (endogenous LAIR1). The procedure:
as §1

B1: mAb3 (antibody, human IgG4 S228P, kappa)
heavy: QVQLQESGPGLVKPSETLSLTCTAFGGSISGHYWSWIRQPAGKGLEWIGRIYPSGGTNKNPSLKSRVTMSVDTSKNQFSLKLSSVTAADTAVYYCVRDYWDDYYGMDVWGQGTTVTVSSASTKGPSVFPLAPCSRSTSESTAALGCLVKDYFPEPVTVSWNSGALTSGVHTFPAVLQSSGLYSLSSVVTVPSSSLGTKTYTCNVDHKPSNTKVDKRV[human IgG4 Fc with S228P (EU numbers) omitted here]
light: [about 100 residues omitted here][about 120 residues omitted here]
notes: also called anti-human LAIR1 antibody mAb3
One may read the Kd as the constant that tells how readily two partners part at equilibrium. One may read the koff as the rate constant with which the complex falls apart. Usually kon stands for the second-order rate constant of association. Usually EC50 stands for the concentration that produces a half-maximal response. Consider B1, for which, in assay [1], the “IC50 of antibody activity, Jurkat-hLAIR1+ NFAT” value turned out to be 11.9 ng/mL and the “Inhibition of NFAT Activity (% inhibition vs. no antibody), Jurkat-hLAIR1+” value was 60.3%. In assay [2], the “Inhibition of NFAT Activity (% inhibition vs. no antibody), Jurkat-cyLAIR1+” value amounted to 67.1%. Besides, the “Inhibition of IL-6 response at 8 ng/mL (% inhibition vs. no antibody), primary human B cells” value in assay [3] worked out at 69.6%. In [4], this molecule gave an equilibrium dissociation constant (Kd) of 0.126 nM, a dissociation rate constant (koff) of 0.000168 s⁻¹ and an on-rate (kon) of 1.34e+06 M⁻¹ s⁻¹. In [5], this molecule displayed a 50% effective concentration (EC50) of 0.0834 µg/mL. Moreover, the “Inhibition of IFN-γ response at 1 µg/mL (% inhibition vs. no antibody), primary human T cells” value in assay [6] is 31.2%. The EC50 in assay [7] was found to be 0.0534 µg/mL. In assay [8], this molecule showed an EC50 of 0.0401 µg/mL. In [9], this molecule showed a concentration giving a half-maximal response (EC50) of 0.0532 µg/mL.
